PubChem BioAssay AID1508642 (National Center for Advancing Translational Sciences (NCATS), 2021)
The whole screen tested about 43,000 compounds, of which about 200 (0.47%) were called active. About 12% were inconclusive and are not listed. The call rests on the fitted dose curve; in most records, active means well fitted cell-killing curve with a large enough effect; inconclusive means small, poorly fitted or top-dose-only effect, or effect the other way; inactive means flat fitted curve, though single readings scatter. The list shows a part of the results.
On the % scale 0 is the no-effect control and ±100 the full control effect.

Assay: Cell viability qHTS assay in S16 Pmp22-F2sN cells; further: nearly all actives have a fitted effect of over 65% in size
Conditions: S16 Pmp22-F2sN Schwann cells (luciferase reporters placed in the Pmp22 gene) viability, CellTiter-Glo, 24 h; series mostly up to 57.5 µM; activity change, negative = cytotoxicity: at the top concentration
Excerpt: Assay Provider: Jim Inglese Ph.D. National Center for Advancing Translational Science, National Institutes of Health, Rockville, MD CMT is a heterogeneous group of neurological disorders that affect approximately 1 in 2,500 people. In particular, the most common form of CMT, CMT1A is genetically linked to the duplication of the PMP22 gene which leads to Schwann cell overexpression, thus manifesting itself as a typical case of dose-sensitive diseases. To identify small molecule compounds that can mediate the expression of PMP22 we developed a phenotypic assay screening strategy by utilizing genome editing techniques to construct Schwann cell lines containing novel reporter technology to monitor the transcriptional or translational regulation of PMP22. For high sensitivity we use a bioluminescent reporter system embedded in the 3' UTR of the PMP22 gene (S16(c9) Pmp22-F2sN) to identify compounds that inhibit gene expression. […] We can further discriminate the effect of all transcriptionally active molecules on PMP22 translation or stability with an assay that incorporates a short NLuc peptide (HiBiT) at the C-terminus of expressed PMP22 (S16(f8) PMP22-HiBiT) allowing alpha complementation and luminescence detection of membrane-associated PMP22 protein. These assays were screened against the NCATS Sytravon Library Collection. Miniaturization of these assays to 1536-well plate format for quantitative high throughput screening (qHTS) yielded rich data sets immediately from the qHTS assay (S16(c9) Pmp22-F2sN), when compared with data from a cell viability assay (Cell TiterGlo) to identify compounds that decreased the output signals through cellular toxicity to streamline the selection process of actives for subsequent characterization using the HiBiT assay (S16(f8) PMP22-HiBiT).
Cell viability assay in S16 Pmp22-F2sN cells PROTOCOL TABLE (format as described by Inglese J, Shamu CE and Guy RK. 2007) SEQUENCE No. (e.g., 1, 2, 3, etc.); […] (e.g., Cells, Incubation, Reagent, etc.); VALUE and DESCRIPTION. 1. Cells. Add 500-1,000 cells in 4 uL in growth media (DMEM High Glucose, No Phenol Red media + 10% heat-inactivated FBS + 1% Pen/Strep supplemented media) per well into Greiner 1536-well white/solid bottom high base, TC-treated plates. 2. Compounds. Library compounds and controls added at 23nL per well, transferred by Pin Tool. 3. Incubation. Incubate plates at 37C, 5% CO2, 95% RH for 24 h. 4. Reagent. Add 3uL CellTiter-Glo per well of Greiner 1536-well plates. 5. Incubation. Incubate plates at room temperature for 15 min., protect from light. 6. Detector. FLuc luminescence measured using CCD-based camera (Viewlux). NOTES (numbers refer to Sequence numbers above; values are from representative experiments) 6. Luminescence Read: Clear filter; Exposure = 1 sec, Gain = High, Speed = Slow, Binning = 2X REFERENCES: 1. Inglese J, Shamu CE and Guy RK, Reporting data from high throughput screening of small molecule libraries, Nature Chemical Biology, 2007, 3(8): 438-441. doi.org/10.1038/nchembio0807-438 2. Yasgar A, Shinn P, Jadhav A, Auld DS, Michael S, Zheng W, Austin CP, Inglese J and Simeonov A, Compound Management for Quantitative High-Throughput Screening. J. Assoc. Lab. Auto., 2008, 13: 79-89. doi: 10.1016/j.jala.2007.12.004
With `Cc1ccc(NS(=O)(=O)c2ccc3[nH]c4c(c3c2)CCCCC4)cc1` the “activity change, negative = cytotoxicity” value was inactive: -21.6%. With `COc1ccc(S(=O)(=O)c2cn(C)c3cc(N4CCOCC4)c(F)cc3c2=O)cc1` the “activity change, negative = cytotoxicity” value was inactive: -0.532%. In the case of `Cc1ccc(OCc2cc(=O)n3cc(C)sc3n2)c(C)c1`, the “activity change, negative = cytotoxicity” value is reported as inactive: 6.28%. For `CC(C)(C)NC(=O)CCSc1nc(-c2ccc3c(c2)OCO3)cc(C(F)(F)F)n1`, the “activity change, negative = cytotoxicity” value was inactive: -24.7%. In the case of `CCN1CCN(C(=O)c2c(C)nn(-c3ccc(F)cc3)c2-n2cccc2)CC1`, the “activity change, negative = cytotoxicity” value is reported as inactive: -3.59%. With `Cc1cccc(-n2c(-c3ccco3)nc3c(cnn3-c3ccc(F)cc3)c2=O)c1` the “activity change, negative = cytotoxicity” value was inactive: 3.59%. In the case of `Cc1ccc(-n2cnc3cc(C(=O)NC4CCCCCC4)ccc32)cc1Cl`, the “activity change, negative = cytotoxicity” value is reported as inactive: 0.0717%. For `COc1ccc(NC(=O)C2CCN(S(=O)(=O)c3c(C)noc3/C=C/c3ccc(C)cc3)CC2)cc1Cl`, the “activity change, negative = cytotoxicity” value was inactive: 5.83%. For `Cc1c(CNCCCc2ccccc2)c(C(=O)O)c(C)n1Cc1cccc(Cl)c1`, the “activity change, negative = cytotoxicity” value was inactive: 17.4%. In the case of `COc1ccc(-c2nn(C)c3sc(C(=O)N4CCN(c5cccc(Cl)c5)CC4)cc23)cc1OC`, the “activity change, negative = cytotoxicity” value is reported as inactive: 3.87%. In the case of `CCOc1ccc2nc(N3CCCC(C(=O)NCc4ccc(C)cc4)C3)sc2c1` (stereo not drawn), the “activity change, negative = cytotoxicity” value is reported as inactive: -4.24%. With `CC(C)NC(=O)C1CCN(C(=O)N2CC(C)Oc3ccccc32)CC1` (stereo not drawn) the “activity change, negative = cytotoxicity” value was inactive: 9.32%. For `COc1ccccc1NC(=O)Cn1c(=O)n(Cc2nc(-c3ccccc3)no2)c(=O)c2ccccc21`, the “activity change, negative = cytotoxicity” value was inactive: 2.83%. In the case of `Cc1ccc(C)c(NC(=O)Nc2csc3c2CCCC3)c1`, the “activity change, negative = cytotoxicity” value is reported as inactive: -0.531%. In the case of `CCS(=O)(=O)NCCc1csc2nc(-c3ccc(C)cc3)nn12`, the “activity change, negative = cytotoxicity” value is reported as inactive: -3.75%. With `O=C(COCc1cc(-c2cccs2)on1)Nc1cccc(O)c1` the “activity change, negative = cytotoxicity” value was inactive: -10.7%. In the case of `COc1ccc(NC(=O)Cn2cc(C(=O)c3cccs3)c3ccccc32)cc1`, the “activity change, negative = cytotoxicity” value is reported as inactive: -7.94%. For `CCC1=C(c2ccc(C)cc2)S(=O)(=O)N=C1N1CCC(C(=O)N2CCCCC2)CC1`, the “activity change, negative = cytotoxicity” value was inactive: 11.8%. With `O=C(Cn1ncc2c3ccccc3n(Cc3ccc(F)cc3)c2c1=O)NCCC1=CCCCC1` the “activity change, negative = cytotoxicity” value was inactive: 1.86%. In the case of `Cc1cn2c(=O)cc(COC(=O)c3cccc(NC(=O)c4ccccc4Cl)c3)nc2s1`, the “activity change, negative = cytotoxicity” value is reported as inactive: -1.02%. For `Cc1ccc(CNc2ncnc3c2nnn3C)cc1`, the “activity change, negative = cytotoxicity” value was inactive: -12.2%. With `CCC(CC)c1nn2c(=O)cc(COc3ccc(NC(=O)c4ccc(C)cc4)cc3)nc2s1` the “activity change, negative = cytotoxicity” value was inactive: 25.6%. In the case of `Cc1nn(C(=O)c2ccc(Cl)cc2)c(C)c1S(=O)(=O)N1CCOCC1`, the “activity change, negative = cytotoxicity” value is reported as inactive: 3.78%. With `Cc1cccc(OCC(=O)N(Cc2ccc(C(C)(C)C)cc2)Cc2ccco2)c1` the “activity change, negative = cytotoxicity” value was inactive: -15.4%. For `CN(C)c1ccc(/C=C/c2noc(-c3ccccc3O)n2)cc1`, the “activity change, negative = cytotoxicity” value was inactive: 0.653%. In the case of `COc1ccccc1NC(=O)C1=C(C)Nc2nc(SCc3ccccc3Cl)nn2C1c1ccccn1` (stereo not drawn), the “activity change, negative = cytotoxicity” value is reported as inactive: 2.66%. For `COc1ccc(OCC(=O)NCC(c2ccc(OC)cc2)N2CCCCC2)cc1` (stereo not drawn), the “activity change, negative = cytotoxicity” value was inactive: 2.55%. In the case of `COc1ccc(C2C(C(=O)Nc3cccnc3)=C(C)Nc3nc(-c4ccccc4)nn32)cc1OC` (stereo not drawn), the “activity change, negative = cytotoxicity” value is reported as inactive: 7.58%. With `O=c1[nH]c(=O)n(C2CCCCC2)c(O)c1C1=Nc2ccccc2SC(c2ccccc2)C1` (stereo not drawn) the “activity change, negative = cytotoxicity” value was inactive: 7.69%. In the case of `COc1ccc(-c2nc(CSc3nnc(C)n4c3cc3occc34)c(C)o2)cc1OC`, the “activity change, negative = cytotoxicity” value is reported as inactive: 11.2%. For `CC(C)C(NS(=O)(=O)c1ccc2c(c1)oc(=O)n2C)C(=O)NCCc1ccccc1` (stereo not drawn), the “activity change, negative = cytotoxicity” value was inactive: -21%. For `COc1cc(OC)cc(C(=O)N2CCN(C(=O)COc3ccccc3)CC2)c1`, the “activity change, negative = cytotoxicity” value was inactive: 9.13%. For `Cc1ccc(C(c2cccc(Br)c2)c2c(C)[nH]c3ccccc23)s1` (stereo not drawn), the “activity change, negative = cytotoxicity” value was inactive: -1.67%. With `CC(C)c1ccc(NC(=O)C(C)N(c2ccccc2)S(C)(=O)=O)cc1` (stereo not drawn) the “activity change, negative = cytotoxicity” value was inactive: 8.24%. With `O=c1c2ccccc2n2c(-c3ccc(Cl)cc3)nnc2n1CCc1ccccc1` the “activity change, negative = cytotoxicity” value was inactive: 9.43%. In the case of `COc1ccc(-n2nc(C(=O)N3CCCC(C)C3)c3c4ccccc4n(C)c3c2=O)cc1Cl` (stereo not drawn), the “activity change, negative = cytotoxicity” value is reported as inactive: -1.85%. With `CCOC(=O)c1ccc(NC(=O)CSc2c3c(nc4cc(Cl)ccc24)CCCC3)cc1` the “activity change, negative = cytotoxicity” value was inactive: 9.86%. For `COc1cc(OC)c(NC(=O)CCCn2nc(C)c3c(C)n(-c4ccccc4)nc3c2=O)cc1Cl`, the “activity change, negative = cytotoxicity” value was inactive: -25.5%. For `Cc1ccc(N2CCn3c2nc2c3c(=O)n(CCCc3ccccc3)c(=O)n2C)cc1C`, the “activity change, negative = cytotoxicity” value was inactive: 6.08%. With `CCN(CC)c1nc2ccccc2nc1C(=O)Nc1cc(OC)c(OC)c(OC)c1` the “activity change, negative = cytotoxicity” value was inactive: -24.6%. In the case of `O=C(NC1CC(=O)N(c2ccccc2)C1)c1ccc(S(=O)(=O)N2CCCCC2)cc1` (stereo not drawn), the “activity change, negative = cytotoxicity” value is reported as inactive: 5.62%. With `Cc1nn2c(C)c(C(=O)NCc3ccco3)cnc2c1-c1ccccc1` the “activity change, negative = cytotoxicity” value was inactive: -0.227%. With `Cc1nn(C(=O)c2ccc(Cl)cc2)c(C)c1S(=O)(=O)N1CCCCCC1` the “activity change, negative = cytotoxicity” value was inactive: 0.731%. For `O=C(NCCc1ccccc1Cl)c1sc2ncccc2c1-n1cccc1`, the “activity change, negative = cytotoxicity” value was inactive: -15.8%. With `CCC(=O)N1c2ccccc2CC1C(=O)NCCc1ccccc1` (stereo not drawn) the “activity change, negative = cytotoxicity” value was inactive: -3.04%. For `CC(C)CCNC(=O)c1cc2cc(S(=O)(=O)N3CCCCC3)ccc2n1C`, the “activity change, negative = cytotoxicity” value was inactive: 0.53%. In the case of `Cn1c(=O)oc2cc(S(=O)(=O)N3CCCC(C(=O)NCc4ccc(F)cc4)C3)ccc21` (stereo not drawn), the “activity change, negative = cytotoxicity” value is reported as inactive: -2.1%. In the case of `CC1=C(C(N)=O)C(c2ccccc2Br)n2ncnc2N1` (stereo not drawn), the “activity change, negative = cytotoxicity” value is reported as inactive: -0.987%.
